This is one part of the list.
Columns and labels:
Assay in all cases: glycan array binding signal (z-score within array); higher = stronger binding
Conditions in all cases: glycan notation: IUPAC condensed, linker removed
[1] = target: GalNAc(b1-4)GlcNAc(b1-2)Man
Procedure, shortened: (§1)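 The binding signal is a Z-score computed within each array. Data were drawn from 3228 arrays in the Consortium for Functional Glycomics database, restricted to those with a known protein sequence. Scores were averaged over arrays of the same protein sequence at different concentrations or buffers, and over linkers, and negative values can be taken as non-binding.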

[2] = target: GalNAc(b1-4)GlcNAc(b1-2)Man(a1-3)[GalNAc(b1-4)GlcNAc(b1-2)Man(a1-6)]Man(b1-4)GlcNAc(b1-4)GlcNAc
Procedure, shortened: as §1

[3] = target: GalNAc(b1-4)GlcNAc(b1-3)GalNAc(b1-4)GlcNAc
Procedure, shortened: as §1

GalNAc(b1-4)GlcNAc6S = target: GalNAc(b1-4)GlcNAc6S
Procedure, shortened: as §1

GalNAc(b1-6)GalNAc = target: GalNAc(b1-6)GalNAc
Procedure, shortened: as §1

GalNAc3S(b1-4)GlcNAc = target: GalNAc3S(b1-4)GlcNAc
Procedure, shortened: as §1

GalNAc3S(b1-4)GlcNAc3S = target: GalNAc3S(b1-4)GlcNAc3S
Procedure, shortened: as §1

[4] = target: GalNAc3S(b1-4)[Fuc(a1-3)]GlcNAc
Procedure, shortened: as §1

GalNAc4S6S(b1-4)GlcNAc = target: GalNAc4S6S(b1-4)GlcNAc
Procedure, shortened: as §1

GalNAc6S(b1-4)GlcNAc = target: GalNAc6S(b1-4)GlcNAc
Procedure, shortened: as §1

Glc(a1-4)Glc = target: Glc(a1-4)Glc
Procedure, shortened: as §1

[5] = target: Glc(a1-4)Glc(a1-4)Glc(a1-4)Glc
Procedure, shortened: as §1

Glc(a1-6)Glc(a1-6)Glc = target: Glc(a1-6)Glc(a1-6)Glc
Procedure, shortened: as §1

[6] = target: Glc(a1-6)Glc(a1-6)Glc(a1-6)Glc
Procedure, shortened: as §1

Glc(b1-4)Glc = target: Glc(b1-4)Glc
Procedure, shortened: as §1

Glc(b1-6)Glc = target: Glc(b1-6)Glc
Procedure, shortened: as §1

GlcA(b1-3)Gal = target: GlcA(b1-3)Gal
Procedure, shortened: as §1

GlcA(b1-3)GlcNAc = target: GlcA(b1-3)GlcNAc
Procedure, shortened: as §1

GlcA(b1-6)Gal = target: GlcA(b1-6)Gal
Procedure, shortened: as §1

[7] = target: GlcA3S(b1-3)Gal(b1-4)GlcNAc(b1-2)Man
Procedure, shortened: as §1

[8] = target: GlcA3S(b1-3)Gal(b1-4)GlcNAc(b1-3)Gal(b1-4)Glc
Procedure, shortened: as §1

[9] = target: GlcNAc(a1-3)Gal(b1-4)GlcNAc
Procedure, shortened: as §1

[10] = target: GlcNAc(a1-4)Gal(b1-3)GlcNAc
Procedure, shortened: as §1

[11] = target: GlcNAc(a1-4)Gal(b1-4)GalNAc
Procedure, shortened: as §1

[12] = target: GlcNAc(a1-4)Gal(b1-4)GlcNAc
Procedure, shortened: as §1

[13] = target: GlcNAc(a1-4)Gal(b1-4)GlcNAc(b1-3)Gal(b1-4)Glc
Procedure, shortened: as §1

[14] = target: GlcNAc(a1-4)Gal(b1-4)GlcNAc(b1-3)Gal(b1-4)GlcNAc
Procedure, shortened: as §1

[15] = target: GlcNAc(a1-4)Gal(b1-4)GlcNAc(b1-3)Gal(b1-4)GlcNAc(b1-3)Gal(b1-4)GlcNAc
Procedure, shortened: as §1

[16] = target: GlcNAc(a1-4)Gal(b1-4)GlcNAc(b1-3)Gal(b1-4)[Fuc(a1-3)]GlcNAc(b1-3)Gal(b1-4)[Fuc(a1-3)]GlcNAc
Procedure, shortened: as §1

[17] = target: GlcNAc(a1-6)Gal(b1-4)GlcNAc
Procedure, shortened: as §1

B1: SialidaseA (Arthrobacter ureafaciens) (protein)
chain: MRSNSTSAPSLVRRAATGVLTCAVSIGLLAGLGLPAQAAPTPPNSPTLPPGSFSETNLAADRTAANFFYRIPALTYLGNDVVLAAWDGRPGSAADAPNPNSIVQRRSTDGGKTWGPVQVIAAGHVADASGPRYGYSDPSYIYDAEANKVFAFFVYSKDQGFGGSQFGNDDADRNVISSAVIESSDAGVTWSQPRLITSVTKPGTSKTNPAAGDVRSNFASSGEGIQLKYGPHKGRLIQQYAGDVRQADGSNKIQAYSVYSDDHGVTWHKGANVGDRMDENKTVELSDGRVLLNSRDNANRGYRKVAVSTDGGATYGPVSQDTELPDPANNGAIARMFPNAAQGSADAKKLIFTNANSKTGRENVSARVSCDDGETWPGVRTIRSGFSAYSTVTRLADGKFGVLYEGNYTDNMPFATFDDAWLNYVCAPLAVPAVNIAPSATQEVPVTVTNQEATTLSGATATVYTPSGWSATTVPVPDVAPGASVTVTVALTAPADASGPRSLNAAFTTADGRVSQFTFTATTPVAPQVGLTITGSAPARDVAANPYQAGDVLGYTLNVKSTANVAANSVPLTGTFDSGFLPPAAPNCRYNNLAAGASYNCTTAKHTITAADMERGYFVPEATFSITSTTTPSLTKTVQFTGAAVALRDGLISADISGARTDVGRDLATRPYAAGELVPYAFTVKNTSPFVEQVVPTAGNFSPFLPAGAGNCRYLSLPAGQSYECATPRHAVTAEEVEQGFFVPDTTWEVSAAGQSTRTYRINGGEVDLLVRDAALSATVVAEWKDADGDRFASAGDPVTFTYTVGNAGNVALTGLEAPDAGISLPFLAPGDTATATREHVLTAADVAGGSLAASAFEATARNGSKEVTATAEGQPLELKVQPAQPSKEPELTVQDLEDQTPPFDLGTAFKYRTGQKVSLAGLEYGQWYYVYLNKTGYRLGWMFPTTGDTVEFILPPEVRNGRDDVVVLDKDGRRVSFDRLQVTPKGEKI
- glycan array binding signal (z-score) [1]: -0.654
- glycan array binding signal (z-score) [2]: -0.743
- glycan array binding signal (z-score) [3]: -0.584
- glycan array binding signal (z-score) (GalNAc(b1-4)GlcNAc6S): -0.463
- glycan array binding signal (z-score) (GalNAc(b1-6)GalNAc): -0.312
- glycan array binding signal (z-score) (GalNAc3S(b1-4)GlcNAc): -0.69
- glycan array binding signal (z-score) (GalNAc3S(b1-4)GlcNAc3S): -0.623
- glycan array binding signal (z-score) [4]: -0.289
- glycan array binding signal (z-score) (GalNAc4S6S(b1-4)GlcNAc): -0.506
- glycan array binding signal (z-score) (GalNAc6S(b1-4)GlcNAc): -0.6
- glycan array binding signal (z-score) (Glc(a1-4)Glc): -0.606
- glycan array binding signal (z-score) [5]: -0.284
- glycan array binding signal (z-score) (Glc(a1-6)Glc(a1-6)Glc): -1.32
- glycan array binding signal (z-score) [6]: -0.604
- glycan array binding signal (z-score) (Glc(b1-4)Glc): -0.607
- glycan array binding signal (z-score) (Glc(b1-6)Glc): -0.959
- glycan array binding signal (z-score) (GlcA(b1-3)Gal): -0.706
- glycan array binding signal (z-score) (GlcA(b1-3)GlcNAc): -0.644
- glycan array binding signal (z-score) (GlcA(b1-6)Gal): -0.705
- glycan array binding signal (z-score) [7]: -0.607
- glycan array binding signal (z-score) [8]: -0.761
- glycan array binding signal (z-score) [9]: -0.538
- glycan array binding signal (z-score) [10]: -0.545
- glycan array binding signal (z-score) [11]: -0.771
- glycan array binding signal (z-score) [12]: -0.665
- glycan array binding signal (z-score) [13]: -0.515
- glycan array binding signal (z-score) [14]: -0.399
- glycan array binding signal (z-score) [15]: -0.574
- glycan array binding signal (z-score) [16]: 0.494
- glycan array binding signal (z-score) [17]: -0.668

— the supplement of paper PMC8728848
